# Measurements as given in the supplement of paper PMC8728848.
# The list shows a part of the results.
# Legend:
# Assay in all cases: glycan array binding signal (z-score within array); higher = stronger binding
# Details in all cases: glycan notation: IUPAC condensed, linker removed
# [1] = target: Neu5Ac(a2-6)GlcNAc(b1-4)GlcNAc(b1-4)GlcNAc
# Summary of the method: (§1)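 Arrays were curated from the Consortium for Functional Glycomics database, 3228 in total, and kept only where the protein sequence was available. Binding is expressed as a within-array Z-score. This score was averaged across arrays of the same protein sequence at different concentrations or buffers and across linkers, and negative values can be read as non-binding.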
# Neu5Ac(a2-8)Neu5Ac = target: Neu5Ac(a2-8)Neu5Ac
# Summary of the method: as §1
# [2] = target: Neu5Ac(a2-8)Neu5Ac(a2-3)Gal(b1-3)GalNAc(b1-4)[Neu5Ac(a2-3)]Gal(b1-4)Glc
# Summary of the method: as §1
# [3] = target: Neu5Ac(a2-8)Neu5Ac(a2-3)Gal(b1-3)GalNAc(b1-4)[Neu5Ac(a2-8)Neu5Ac(a2-3)]Gal(b1-4)Glc
# Summary of the method: as §1
# [4] = target: Neu5Ac(a2-8)Neu5Ac(a2-3)Gal(b1-4)Glc
# Summary of the method: as §1
# [5] = target: Neu5Ac(a2-8)Neu5Ac(a2-3)Gal(b1-4)GlcNAc
# Summary of the method: as §1
# [6] = target: Neu5Ac(a2-8)Neu5Ac(a2-3)[Gal(b1-3)GalNAc(b1-4)]Gal(b1-4)Glc
# Summary of the method: as §1
# [7] = target: Neu5Ac(a2-8)Neu5Ac(a2-3)[GalNAc(b1-4)]Gal(b1-4)Glc
# Summary of the method: as §1
# [8] = target: Neu5Ac(a2-8)Neu5Ac(a2-8)Neu5Ac
# Summary of the method: as §1
# [9] = target: Neu5Ac(a2-8)Neu5Ac(a2-8)Neu5Ac(a2-3)Gal(b1-4)Glc
# Summary of the method: as §1
# [10] = target: Neu5Ac(a2-8)Neu5Ac(a2-8)Neu5Ac(a2-3)[Gal(b1-3)GalNAc(b1-4)]Gal(b1-4)Glc
# Summary of the method: as §1
# [11] = target: Neu5Ac(a2-8)Neu5Ac(a2-8)Neu5Ac(a2-3)[GalNAc(b1-4)]Gal(b1-4)Glc
# Summary of the method: as §1
# [12] = target: Neu5Ac(a2-8)Neu5Ac(a2-8)Neu5Ac(a2-8)Neu5Ac(a2-3)[GalNAc(b1-4)]Gal(b1-4)Glc
# Summary of the method: as §1
# [13] = target: Neu5Ac(a2-8)Neu5Gc(a2-3)Gal(b1-4)GlcNAc
# Summary of the method: as §1
# [14] = target: Neu5Ac(b2-6)Gal(b1-4)GlcNAc
# Summary of the method: as §1
# Neu5Ac(b2-6)GalNAc = target: Neu5Ac(b2-6)GalNAc
# Summary of the method: as §1
# [15] = target: Neu5Ac9Ac(a2-3)Gal(b1-3)GlcNAc
# Summary of the method: as §1
# [16] = target: Neu5Ac9Ac(a2-3)Gal(b1-4)GlcNAc
# Summary of the method: as §1
# [17] = target: Neu5Ac9Ac(a2-6)Gal(b1-4)GlcNAc
# Summary of the method: as §1
# [18] = target: Neu5Gc(a2-3)Gal(b1-3)GlcNAc
# Summary of the method: as §1
# [19] = target: Neu5Gc(a2-3)Gal(b1-3)[Fuc(a1-4)]GlcNAc
# Summary of the method: as §1
# Neu5Gc(a2-3)Gal(b1-4)Glc = target: Neu5Gc(a2-3)Gal(b1-4)Glc
# Summary of the method: as §1
# [20] = target: Neu5Gc(a2-3)Gal(b1-4)GlcNAc
# Summary of the method: as §1
# [21] = target: Neu5Gc(a2-3)Gal(b1-4)GlcNAc(b1-3)Gal(b1-4)GlcNAc(b1-2)Man(a1-3)[Neu5Gc(a2-3)Gal(b1-4)GlcNAc(b1-3)Gal(b1-4)GlcNAc(b1-2)Man(a1-6)]Man(b1-4)GlcNAc(b1-4)GlcNAc
# Summary of the method: as §1
# [22] = target: Neu5Gc(a2-3)Gal(b1-4)[Fuc(a1-3)]GlcNAc
# Summary of the method: as §1
# [23] = target: Neu5Gc(a2-6)Gal(b1-4)GlcNAc
# Summary of the method: as §1
# Neu5Gc(a2-6)GalNAc = target: Neu5Gc(a2-6)GalNAc
# Summary of the method: as §1
# [24] = target: Neu5Gc(a2-8)Neu5Ac(a2-3)Gal(b1-4)GlcNAc
# Summary of the method: as §1
# [25] = target: Neu5Gc(a2-8)Neu5Gc(a2-3)Gal(b1-4)GlcNAc
# Summary of the method: as §1
# [26] = target: Neu5Gc(a2-8)Neu5Gc(a2-3)Gal(b1-4)GlcNAc(b1-3)Gal(b1-4)GlcNAc
# Summary of the method: as §1
# [27] = target: Neu5Gc(a2-8)Neu5Gc(a2-6)Gal(b1-4)GlcNAc
# Summary of the method: as §1
# [28] = target: Neu5Gc(b2-6)Gal(b1-4)GlcNAc
# Summary of the method: as §1
binder,measurement,setting,value
"HML-Native (Hypnea musciformis), P84871 (protein) QKFCTLDIAPVCCQIVIGGGMYTAGNACMCEGFVSGVGRCENPKECPCTREAQIPSCCSSRWGLVSVTGKCACDCLGGTVAFPEPCPSPY",glycan array binding signal (z-score),[1],-0.225
same,glycan array binding signal (z-score),Neu5Ac(a2-8)Neu5Ac,-0.12
same,glycan array binding signal (z-score),[2],-0.326
same,glycan array binding signal (z-score),[3],-0.199
same,glycan array binding signal (z-score),[4],-0.347
same,glycan array binding signal (z-score),[5],-0.333
same,glycan array binding signal (z-score),[6],-0.343
same,glycan array binding signal (z-score),[7],-0.26
same,glycan array binding signal (z-score),[8],-0.199
same,glycan array binding signal (z-score),[9],-0.322
same,glycan array binding signal (z-score),[10],-0.222
same,glycan array binding signal (z-score),[11],-0.233
same,glycan array binding signal (z-score),[12],-0.316
same,glycan array binding signal (z-score),[13],-0.3
same,glycan array binding signal (z-score),[14],-0.194
same,glycan array binding signal (z-score),Neu5Ac(b2-6)GalNAc,-0.219
same,glycan array binding signal (z-score),[15],-0.136
same,glycan array binding signal (z-score),[16],-0.171
same,glycan array binding signal (z-score),[17],-0.261
same,glycan array binding signal (z-score),[18],-0.296
same,glycan array binding signal (z-score),[19],-0.25
same,glycan array binding signal (z-score),Neu5Gc(a2-3)Gal(b1-4)Glc,-0.352
same,glycan array binding signal (z-score),[20],-0.339
same,glycan array binding signal (z-score),[21],-0.113
same,glycan array binding signal (z-score),[22],-0.253
same,glycan array binding signal (z-score),[23],-0.24
same,glycan array binding signal (z-score),Neu5Gc(a2-6)GalNAc,-0.28
same,glycan array binding signal (z-score),[24],-0.289
same,glycan array binding signal (z-score),[25],-0.161
same,glycan array binding signal (z-score),[26],-0.171
same,glycan array binding signal (z-score),[27],-0.275
same,glycan array binding signal (z-score),[28],-0.289
